# Screen size: about 410,000 compounds; about 310 (0.076%) were called active. Inconclusive results, whose numbers are uncertain, are shown with a selection of clear calls. Calls follow the shape of the dose curve; as a rule, active = well fitted curve in the direction sought with a large enough effect; inconclusive = small, poorly fitted or top-dose-only effect; inactive = flat fitted curve, though single readings scatter. Potencies of inconclusive entries are doubtful fits and often do not repeat.
# Target: DNA dC->dU-editing enzyme APOBEC-3G (Homo sapiens) (UniProt Q9HC16)
# Chain of UniProt Q9HC16 (Q9HC16 whole entry, looked up): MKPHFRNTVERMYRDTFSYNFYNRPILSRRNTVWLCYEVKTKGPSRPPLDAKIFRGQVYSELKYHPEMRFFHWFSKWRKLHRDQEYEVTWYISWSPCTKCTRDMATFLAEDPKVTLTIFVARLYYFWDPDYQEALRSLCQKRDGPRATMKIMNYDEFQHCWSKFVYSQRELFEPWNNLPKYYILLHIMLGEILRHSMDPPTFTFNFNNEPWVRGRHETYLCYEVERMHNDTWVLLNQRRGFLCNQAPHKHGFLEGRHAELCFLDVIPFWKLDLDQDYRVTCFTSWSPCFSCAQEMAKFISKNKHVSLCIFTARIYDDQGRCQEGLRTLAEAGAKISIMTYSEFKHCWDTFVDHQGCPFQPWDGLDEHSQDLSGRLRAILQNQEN
# Experiment: qHTS for Inhibitors of Vif-A3G Interactions: qHTS; also: nearly all actives have a fitted effect of over 60% in size
# Settings: HeLa A3G-eYFP + Vif (tagged APOBEC3G with the HIV-1 protein that degrades it), YFP fluorescence, overnight; series mostly up to 46.1 µM
# How it was run: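 HeLa cells stably expressing Vif and C-terminally eYFP-tagged A3G, seeded overnight at 37 deg C, then exposed to compound by pintool overnight at 37 deg C. Rise in yellow fluorescence (Ex 488/Em 500-530, Acumen) marks blocked Vif-driven A3G degradation.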
# Potency is read from the fitted curve at half-maximal effect; tags tell the direction and shape of the fitted curve.
row,Structure (SMILES),Potency
1,CCc1ccc(-c2cc(C(=O)N/N=C/c3c[nH]c4ccccc34)[nH]n2)cc1,"inconclusive: 3.16 µM [inhibitor, partial curve, poor fit]"
2,O=C(Cc1ccccc1)NNC(=O)Nc1ccc(Cl)c(Cl)c1,"inconclusive: 12.6 µM [inhibitor, single point]"
3,CCc1nnc(NC(=O)CSc2nnc(-c3ccccc3O)n2-c2ccc(C)cc2C)s1,"inconclusive: 2.82 µM [inhibitor, full curve]"
4,COc1cc(C(=O)N/N=C/c2sccc2C)cc(OC)c1OC,"inconclusive: 0.562 µM [inhibitor, full curve, poor fit]"
5,CSc1cccc(NC(=O)c2cc3c(COC(C)=O)cnc(C)c3oc2=O)c1,"inconclusive: 3.98 µM [inhibitor, single point]"
6,CC(=O)c1ccc(-c2ccc(C(=O)Nc3nc(-c4ccccn4)cs3)o2)cc1,"inconclusive: 12.6 µM [inhibitor, partial curve, poor fit]"
7,Cc1cc(/C=C2\SC(=Nc3ccc(F)cc3)NC2=O)c(C)n1-c1ccc(S(N)(=O)=O)cc1,"inconclusive: 2 µM [inhibitor, partial curve, poor fit]"
8,CCCCCCNc1ccc(/C=C/c2ccnc3ccccc23)cc1,"inconclusive: 17.8 µM [inhibitor, partial curve, poor fit]"
9,Cc1ccc(N2CCN(C(=O)c3[nH]c(C(F)(F)F)nc3-c3ccccc3)CC2)cc1,"inconclusive: 12.6 µM [inhibitor, partial curve]"
10,CC(=O)c1ccc2c(c1)CC1(C2)Cc2cc3c(cc2C1)C(=O)CC3 (centres undefined),"inconclusive: 2.24 µM [inhibitor, full curve, poor fit]"
11,Cc1cc(C)c2nc3sc(C(=O)N4CCOCC4)c(N)c3cc2c1,"inconclusive: 28.2 µM [inhibitor, partial curve, poor fit]"
12,COc1ccc(-c2n[nH]c3c2CN(C(=O)c2ccc(OC)c(OC)c2)CC3)cc1,"inconclusive: 7.94 µM [inhibitor, partial curve, poor fit]"
13,COc1cc(C(=O)NNC(=S)NC(=O)c2ccc(Cl)cc2)cc(OC)c1OC,"inconclusive: 25.1 µM [inhibitor, single point]"
14,COc1ccc2nc(SCC(=O)NC3CCCC3)c(C)cc2c1,"inconclusive: 1.26 µM [inhibitor, full curve, poor fit]"
15,COCCCNC(=O)c1oc2c(c1C)-c1nn(Cc3ccccc3Cl)cc1CC2,"inconclusive: 20 µM [inhibitor, single point]"
16,Fc1cccc(Cc2c(-c3ccco3)nc3c(Cl)cc(C(F)(F)F)cn23)c1,"inconclusive: 22.4 µM [inhibitor, single point]"
17,Cc1cccc(N2CCN(C(=O)c3ccc4ccccc4c3)CC2C)c1 (centres undefined),"inconclusive: 15.8 µM [inhibitor, single point]"
18,Cc1ccc(S(=O)(=O)CCSc2nc(C)cc(C(F)(F)F)c2C#N)cc1,active: 11.2 µM
19,O=C(Cn1c(SCC(=O)Nc2ccc(F)cc2)nc2ccccc21)NCc1ccc(F)cc1,inactive
20,Cc1cc(Nc2ccccc2)nc(NCc2ccccc2)n1,"inconclusive: 15.8 µM [inhibitor, single point]"
21,COc1ccc(/C=C2\N=C(c3ccccc3Cl)NC2=O)cc1,"inconclusive: 5.01 µM [inhibitor, full curve]"
22,CC(=O)Oc1ccc(C(=O)[C@H]2[C@H]3C(=O)N(c4ccc(C)cc4)C(=O)[C@H]3[C@@H]3C=CC=NN32)cc1,inactive

row,Structure (SMILES),Potency
1,COc1cc(/C=C2\SC(=S)N(CCC(=O)Nc3ccc(O)cc3)C2=O)cc(OC)c1OC,inactive
2,CCCCn1c(N)c(N(CC(C)C)C(=O)Cc2ccc(S(=O)(=O)N3CCOCC3)s2)c(=O)[nH]c1=O,"inconclusive: 15.8 µM [inhibitor, partial curve, poor fit]"
3,CN(C)c1ccc(/C=C2\NC(=S)N(Cc3ccccc3)C2=O)cc1,"inconclusive: 2.51 µM [inhibitor, partial curve, poor fit]"
4,COc1cccc(N2CCN(c3ncnc4c3cnn4-c3ccc(C)cc3C)CC2)c1,"inconclusive: 11.2 µM [inhibitor, partial curve]"
5,COc1ccc(C2C(C(C)=O)=C(O)C(=O)N2c2nccs2)cc1OC (centres undefined),inactive
6,COc1ccc(-n2nc3c(N4CCC(C(=O)NCCc5ccccc5)CC4)nnc(C)c3c2C)cc1,"inconclusive: 20 µM [inhibitor, partial curve, poor fit]"
7,CS(=O)(=O)N1CCn2c1nc1ccccc12,inactive
8,CSc1nsc(/C=C/Nc2cccc(Cl)c2)c1C#N,"inconclusive: 22.4 µM [inhibitor, single point]"
9,COc1ccc(OC)c(C2C=C(c3ccc(C)c(C)c3)Nc3nnnn32)c1 (centres undefined),"inconclusive: 1.41 µM [inhibitor, full curve, poor fit]"
10,O=C1NC(Cc2ccccc2)c2nc3ccccc3c(=O)n2-c2cc3ccccc3cc21 (centres undefined),"inconclusive: 6.31 µM [inhibitor, full curve, poor fit]"
11,CN1CCN(c2ccc(NC(=O)c3ccc(Br)o3)cc2)CC1,inactive
12,CCCn1c(CC)nc([N+](=O)[O-])c1S(=O)(=O)c1ccccc1,"inconclusive: 35.5 µM [inhibitor, single point]"
13,N#C/C(=C\c1ccco1)c1nc2ccccc2s1,"inconclusive: 12.6 µM [inhibitor, single point]"
14,COc1ccc(CCN2C(=O)c3[nH]nc(-c4ccccc4O)c3C2c2ccccc2)cc1 (centres undefined),"inconclusive: 10 µM [inhibitor, partial curve, poor fit]"
15,COC(=O)c1cn(C(=O)c2cc(OC)c(OC)c(OC)c2)c2ccccc12,inactive
16,N#CC1=C(N)Oc2cc3ccccc3cc2C1c1cccnc1 (centres undefined),"inconclusive: 5.62 µM [inhibitor, partial curve]"
17,Cc1ccc(C)c(S(=O)(=O)Nc2cc(SCC(=O)O)c(O)c3ccccc23)c1,"inconclusive: 12.6 µM [inhibitor, partial curve, poor fit]"
18,COc1ccc(/C=N/NC(=O)CCn2c3ccccc3c3ccccc32)cc1O,"inconclusive: 1.12 µM [inhibitor, full curve, poor fit]"
19,N#C/C(=C\c1ccc(C(=O)O)cc1)c1nc2sc3c(c2c(=O)[nH]1)CCCC3,"inconclusive: 31.6 µM [inhibitor, single point]"
20,Cc1cc(CN2CCCC(CNC(=O)c3ccc(F)cc3)C2)cc(C)c1O (centres undefined),inactive
21,CCOc1ccc2nc(N(CCCN(C)C)C(=O)c3ccc(S(=O)(=O)N4CCCC4)cc3)sc2c1,inactive
22,COc1cccc(C#CC2=CC(=O)CC(C)(C)C2)c1,"inconclusive: 25.1 µM [inhibitor, single point]"

row,Structure (SMILES),Potency
1,COc1ccc(NC(=O)CSc2ccc3c4c(cccc24)C(=O)c2ccccc2-3)cc1,"inconclusive: 2.82 µM [inhibitor, full curve, poor fit]"
2,CCOC(=O)c1cc(C)n(CC2CCC(C(=O)Nc3cc(OC)cc(OC)c3)CC2)c1C (centres undefined),inactive
3,COc1cc(/C=C2/S/C(=N/S(=O)(=O)c3ccccc3)NC2=O)c([N+](=O)[O-])cc1OC,inactive
4,CCN1CCN(c2cc(C)c3cc(NC(=O)c4cc(Cl)ccc4OC)ccc3n2)CC1,"inconclusive: 35.5 µM [inhibitor, single point]"
5,O=C(CSC1=Nc2ccccc2C2CC=NN12)Nc1ccc2c(c1)OCO2 (centres undefined),"inconclusive: 35.5 µM [inhibitor, single point]"
6,Cc1cccc(OCc2n[nH]c(=S)n2C2CCCCC2)c1,"inconclusive: 7.94 µM [inhibitor, partial curve]"
7,O=C(N/N=C/c1ccc(O)cc1)c1ccc(COc2cc(Cl)ccc2Cl)o1,"inconclusive: 20 µM [inhibitor, single point]"
8,CN1CCN(c2nc3ccccc3nc2NS(=O)(=O)c2ccc(Br)cc2)CC1,inactive
9,COc1cccc(CN2CCN(Cc3cc(OC)c(OC)c(OC)c3)CC2)c1OC,inactive
10,COc1ccccc1NC(=O)N1CCC(c2nc3cc(C)c(C)cc3[nH]2)CC1,"inconclusive: 1.26 µM [inhibitor, full curve, poor fit]"
11,COc1ccccc1NC(=O)c1ccc([N+](=O)[O-])o1,"inconclusive: 22.4 µM [inhibitor, partial curve, poor fit]"
12,COc1cccc(NC(=O)c2cc3c(=O)n(C)c4ccccc4c3n2C)c1,inactive
13,Cn1cnc2nc(Cl)nc(Cl)c21,"inconclusive: 1.78 µM [inhibitor, partial curve, poor fit]"
14,COc1cc(/C=N/Nc2cccc3cccnc23)cc(OC)c1O,"inconclusive: 25.1 µM [inhibitor, single point]"
15,CC1=C/C(=N\NC(=S)NCc2ccccc2)CC1,inactive
16,O=C1NC(c2ccccc2Cl)Nc2ccccc21 (centres undefined),"inconclusive: 17.8 µM [inhibitor, partial curve, poor fit]"
17,CCC(=NCCc1c(C)[nH]c2ccccc12)C1=C(O)CC(c2ccccc2)CC1=O (centres undefined),"inconclusive: 3.16 µM [inhibitor, single point]"
18,COc1ccc(CC(=O)NCc2ccccc2)cc1,"inconclusive: 1.58 µM [inhibitor, full curve, poor fit]"
19,Cc1nn(-c2ccccc2)c2c1N(CCCC(=O)NCc1ccc(OC(C)C)cc1)C(=O)CS2,"inconclusive: 3.98 µM [inhibitor, single point]"
20,CCOc1ccc(-n2cc(-c3ccccc3)c3c(=O)[nH]cnc32)cc1,inactive

# — PubChem BioAssay AID602310 (National Center for Advancing Translational Sciences (NCATS), 2012)
